This is one part of the list.
Target: T1, OsWOX13 (Oryza sativa, UniProt Q5QMM3 1-267)
T1 sequence: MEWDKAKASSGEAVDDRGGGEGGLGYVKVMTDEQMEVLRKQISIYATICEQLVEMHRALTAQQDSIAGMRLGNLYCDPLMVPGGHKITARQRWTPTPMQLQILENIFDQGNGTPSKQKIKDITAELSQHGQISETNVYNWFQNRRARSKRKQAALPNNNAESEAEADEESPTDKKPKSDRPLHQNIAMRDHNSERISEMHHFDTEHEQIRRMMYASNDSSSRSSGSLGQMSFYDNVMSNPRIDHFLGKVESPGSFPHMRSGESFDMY
Test: protein-binding microarray (RPBM); PBS, 2% BSA, 51.3 ng/ul salmon testes DNA, 50 uM zinc acetate, 200 nM TF, 25 C, 1 h; high values mean tight binding
Details: protein: recombinant; tags: N-terminal polyhistidine and DsRed monomer fusion (pET32a); label: CyDye5-dUTP incorporated in the synthesized complementary strand; 3' TTTTT single-stranded linker to array surface; dsDNA, one strand shown
Outline: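 The binding signal is fluorescence intensity per array feature (arbitrary units). Readings came from an Axon 4000B scanner after a washed, 2% BSA-blocked, double-stranded custom Agilent array had been incubated for 1 h at 25 °C with 200 nM protein and 50 µM zinc acetate. The protein was a Ni–NTA-purified transcription factor fused N-terminally to polyhistidine and DsRed, expressed in E. coli BL21-CodonPlus.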

Row | Sequence | binding signal
1 | TTTCAAATAATTATTATGTTGTAGTTTGTGAATGGGCAAACGGAGTCACCTAGTGCAG | 5150 fluorescence intensity (a.u.)
2 | CTATATAAAACTGATTGATTCATATTACTACGACGTTTTACGGAGTCACCTAGTGCAG | 6690 fluorescence intensity (a.u.)
3 | GATTTGTGATGATTATTCGTGATTTGCGATAAATGGTCCCCGGAGTCACCTAGTGCAG | 30900 fluorescence intensity (a.u.)
4 | CTTAATTAACTCTGTCTGCAGGTCAGCGTTTACCTGCAGACGGAGTCACCTAGTGCAG | 5380 fluorescence intensity (a.u.)
5 | TCATATTAATTTTAAGTGTTGATCCTATGTTAGCACTGGCCGGAGTCACCTAGTGCAG | 8150 fluorescence intensity (a.u.)
6 | TCGTGGTGGTGGTGGTGGTGGAAGTTAGGGTTTGAGGGTTCGGAGTCACCTAGTGCAG | 4650 fluorescence intensity (a.u.)
7 | AATCTCAAATTGAATCCATTTTATTTGATGACGATTTATTCGGAGTCACCTAGTGCAG | 9810 fluorescence intensity (a.u.)
8 | TAATAGATTTAATCATGTGCTGATGACATTATTATGATTCCGGAGTCACCTAGTGCAG | 19900 fluorescence intensity (a.u.)
9 | CTTGGGATTATTATAATCTAGATTATTGAGTTAGATTACTCGGAGTCACCTAGTGCAG | 18700 fluorescence intensity (a.u.)
10 | TGCAGTCCATTTATCACTTGATTATCTGGGAATTGAAGAGCGGAGTCACCTAGTGCAG | 11300 fluorescence intensity (a.u.)
11 | TCTTCCCTACACACATCAATCAACGGGCAAAGCAAGCGAGCGGAGTCACCTAGTGCAG | 7970 fluorescence intensity (a.u.)
12 | TATATGACTGGATTGTTATCATTTCACAGAAACAGCGCTCCGGAGTCACCTAGTGCAG | 15000 fluorescence intensity (a.u.)
13 | GGATAGAGTAATTAAAGATTTAAATGCACATGCAAATATGCGGAGTCACCTAGTGCAG | 5660 fluorescence intensity (a.u.)
14 | CACTGAAACAAAACCTGATTTGTCAATTGTCATGTACTCACGGAGTCACCTAGTGCAG | 5890 fluorescence intensity (a.u.)
15 | CTTCATCAATCATCATATGCCGAACACAACCTTAATACTGCGGAGTCACCTAGTGCAG | 20100 fluorescence intensity (a.u.)
16 | CCTAACAATCGGTCAATCTAGTAGCACAAGACATTCCAAACGGAGTCACCTAGTGCAG | 3730 fluorescence intensity (a.u.)
17 | CGTCGCCTCCATTATATATTTTGTACACACCTACAGTTGCCGGAGTCACCTAGTGCAG | 4010 fluorescence intensity (a.u.)
18 | ACACAAGATTGACTACATGTGTATCGAGAAATGTAAATATCGGAGTCACCTAGTGCAG | 9350 fluorescence intensity (a.u.)
19 | ATAATTATTATGTCTGGTAGGATAGGATTTAGATGGTAAGCGGAGTCACCTAGTGCAG | 5670 fluorescence intensity (a.u.)
20 | TGAGATAATTAACATGTACTCTAGTCACTAACTTGCAATTCGGAGTCACCTAGTGCAG | 13500 fluorescence intensity (a.u.)
21 | ATCTGATTACCCTTTCTCACTAGACACGTGCCAAAACTAGCGGAGTCACCTAGTGCAG | 14700 fluorescence intensity (a.u.)

Row | Sequence | binding signal
22 | CATGATGGGAAGTTAGTTGACCATCCAGTTGTCAAGTTTGCGGAGTCACCTAGTGCAG | 10700 fluorescence intensity (a.u.)
23 | TATGACAGATAAGCATAAATATAAGCGAAAATATGAGGATCGGAGTCACCTAGTGCAG | 6070 fluorescence intensity (a.u.)
24 | AATGATAGGGAACTGTCGGAGATAGGAAAGACGGCGGGACCGGAGTCACCTAGTGCAG | 14800 fluorescence intensity (a.u.)
25 | CATACAGTTAATTAACACCATGCATACAACATTTACACTCCGGAGTCACCTAGTGCAG | 17600 fluorescence intensity (a.u.)
26 | GGTTGGGGAAGGAGAGGAGAGGAGAGGAGAGGAGAGGAGACGGAGTCACCTAGTGCAG | 9690 fluorescence intensity (a.u.)
27 | CATCGATCAGATCAAATCAAATCAAATCAACTCAAGCGCCCGGAGTCACCTAGTGCAG | 7760 fluorescence intensity (a.u.)
28 | GTCAGCTGATTGCTTATTCTTATATTATAAGACAGATGAGCGGAGTCACCTAGTGCAG | 38800 fluorescence intensity (a.u.)
29 | TTAGTGCTTAAATGATTAATCTATGGTCCAAATTATCTTTCGGAGTCACCTAGTGCAG | 6040 fluorescence intensity (a.u.)
30 | GATGATATGCCACAGTGTGATTAACCAAGATCAGTTTTCGCGGAGTCACCTAGTGCAG | 4310 fluorescence intensity (a.u.)
31 | ACCGTTTGATTGCGTCAAGATTCGTGCTTACACGGGTGGGCGGAGTCACCTAGTGCAG | 38500 fluorescence intensity (a.u.)
32 | ACCTAAGTTTGGATCCAATCATTCCTATCCGTCTCCGTTGCGGAGTCACCTAGTGCAG | 5730 fluorescence intensity (a.u.)
33 | TGTGGATTGGTTTGGGGTGGATGCAGGCTGAGTAAAATAACGGAGTCACCTAGTGCAG | 6610 fluorescence intensity (a.u.)
34 | GACTAAACGTATAAATTATTCTAGCTGTTGTTACACTGATCGGAGTCACCTAGTGCAG | 4180 fluorescence intensity (a.u.)
35 | TTATAGTGTCTAATTAATTTAGTGTAAATGTATTCTCAATCGGAGTCACCTAGTGCAG | 16100 fluorescence intensity (a.u.)
36 | ATTGTCAAATCATAACGCAATTAGGCTCAAAGAATTCGTCCGGAGTCACCTAGTGCAG | 11200 fluorescence intensity (a.u.)
37 | TCCCAATCTTCTCTATCTCATTCTCCTCAAACATAGCCTTCGGAGTCACCTAGTGCAG | 3910 fluorescence intensity (a.u.)
38 | AGCGTGATTGACCTCTCGTTATCGTGGACTTCATTCTAAACGGAGTCACCTAGTGCAG | 42500 fluorescence intensity (a.u.)
39 | TAAGATTTAAATTTTGTAGACAATATAAGCATTTATAGGACGGAGTCACCTAGTGCAG | 7740 fluorescence intensity (a.u.)
40 | CCCCAATCACCCCAATCCTTCTCCCGGCCGTAGACCATTTCGGAGTCACCTAGTGCAG | 7470 fluorescence intensity (a.u.)
41 | ATTCTTTTCTCAATCAATAACAACTCTCCACCATTTAATTCGGAGTCACCTAGTGCAG | 7830 fluorescence intensity (a.u.)
42 | TTAATTTTCTTGTAAGTTTTCAATCTAATGGATTTGAAGCCGGAGTCACCTAGTGCAG | 5160 fluorescence intensity (a.u.)
